# Experimental data published in PubChem BioAssay AID485364 (National Center for Advancing Translational Sciences (NCATS), 2010).
# Out of some 360,000 compounds screened, about 11,000 (3.1%) were called active. The inconclusive results got no clear call from the source; some entries with a clear call stand among them for comparison. Calls come from the whole dose curve; as a rule, active = well fitted inhibition curve with a large enough effect; inconclusive = small, poorly fitted or top-dose-only effect; inactive = no such curve, though single readings can be large or run the other way. No potency is given beside an inconclusive call; the fits are too rough.
# Target: Schistosoma mansoni thioredoxin glutathione reductase (TGR) (UniProt Q962Y6)
# Assay: qHTS Assay for the Inhibitors of Schistosoma Mansoni Peroxiredoxins; note: nearly all actives have a fitted effect of over 60% in size
# Details: purified TGR, DTNB reduction, TNB absorbance 405 nm; activity change, negative = inhibition: at 114 µM (top of the series) unless noted
# Procedure, shortened: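 TGR 20 nM + NADPH 100 uM (dispensed conc.), cpd preinc 15 min RT; start with NADPH (500 uM addition) then DTNB (15 mM addition). Kinetic TNB absorbance, 405 nm filter. Four-parameter Hill fit across titration.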
# % is set by controls: 0 for no effect and ±100 for the full control effect; potency is the fitted concentration of half-maximal effect; tags give direction and shape of the fitted curve.
SMILES,Potency,"activity change, negative = inhibition"
COc1cc(/C=C/C(=O)O)cc(Br)c1O,"inconclusive [inhibitor, partial curve]",
N#Cc1c(N)nc2c(c1-c1cccs1)CCCC2,,inactive: -5.61%
CCn1cc(CN2CCN(Cc3ccc(C)o3)C(CCO)C2)c2ccccc21 (configuration not stated),"inconclusive [inhibitor, partial curve]",
CSc1cccc(NC(=O)/C=C/c2ccccc2)c1,,inactive: 1.59%
Fc1ccc(-c2cc3nc(-c4ccccc4)cc(N4CCN(CCN5CCOCC5)CC4)n3n2)cc1,,inactive: -13.4%
COc1ccccc1OCc1ccc(C(=O)OCC2CCCO2)o1 (configuration not stated),"inconclusive [inhibitor, partial curve, poor fit]",
COc1cccc(-c2nnc(SCC(=O)Nc3ccc(S(N)(=O)=O)cc3)n2C)c1,"inconclusive [inhibitor, single point]",
Cc1ccccc1Cn1c(C)c(CNCCCc2ccccc2)c(C(=O)O)c1C,,inactive: -2.62%
CCc1cccc2c(C(=O)COC(=O)c3ccccc3)c[nH]c12,,inactive: -10.2%
CC(C)(C)c1ccc(NC(=S)NCc2cccnc2)cc1,"inconclusive [inhibitor, partial curve, poor fit]",
O=C(CSCC(=O)OCn1nnc2ccccc2c1=O)Nc1ccc(Cl)cc1,"inconclusive [inhibitor, full curve, poor fit]",
CN1CCC(=O)N([C@H](CSc2ccc(Br)cc2)c2ccccc2)CC1,"inconclusive [inhibitor, partial curve]",
O=C1CC(c2ccco2)Sc2nc3ccccc3n21 (configuration not stated),active: 50.1 µM,
CCOc1ccc(C(=O)NCC(=O)NCC(c2ccco2)N2CCCCC2)cc1 (configuration not stated),active: 89.1 µM,
CCOC(=O)c1ccc(NC(=O)CSc2ncc(S(=O)(=O)c3ccc(C)c(Cl)c3)c(=O)[nH]2)cc1,,inactive: -3.7%
Cc1cc(C(=O)CSc2nnnn2C)c(C)n1Cc1ccco1,"inconclusive [inhibitor, full curve]",
Cc1c(C(=O)O)cccc1-c1ccc(/C=N/Nc2ccc(Br)cc2)o1,"inconclusive [inhibitor, partial curve]",
C/C=C/C=C/C(=O)Nc1nccs1,active: 35.5 µM,
CC1(C)OC(=O)C(=CNc2cccc(O)c2)C(=O)O1,"inconclusive [inhibitor, partial curve, poor fit]",
CCOCCn1c(SCCCc2ccccc2)nc2c1c(=O)[nH]c(=O)n2C,"inconclusive [inhibitor, single point]",
Cn1c(=O)c(Nc2ccc(O)cc2)c2c3c(cccc31)C(=O)c1ccccc1-2,"inconclusive [inhibitor, partial curve]",
O=C(Cn1cnc2c(nnn2Cc2ccccc2)c1=O)NCc1ccco1,"inconclusive [inhibitor, partial curve]",
O=C(CCCCl)NC(=S)Nc1ccc(N2CCOCC2)cc1,"inconclusive [inhibitor, partial curve]",
O=S(=O)(c1ccc(NC(=S)NC2CC2)cc1)N1CCOCC1,active: 15.8 µM,

SMILES,Potency,"activity change, negative = inhibition"
CSc1c(C#N)sc(=S)n1-c1ccc(C)cc1,,inactive: 42.6%
Cc1ccc(CCNC(=O)C2CCCN(c3nc4ccccc4o3)C2)cc1 (configuration not stated),"inconclusive [inhibitor, single point]",
Cc1ccc2nc(/C(C#N)=C/c3ccc(-c4ccc(C(=O)OC(C)C)cc4)o3)[nH]c2c1,"inconclusive [inhibitor, full curve, poor fit]",
CCn1nc(C)cc1C(=O)NC1CCCc2c1cnn2-c1cc(F)cc(F)c1 (configuration not stated),"inconclusive [inhibitor, full curve, poor fit]",
Cc1c(N=Cc2c(O)n(Cc3ccco3)c(=O)[nH]c2=O)c(=O)n(-c2ccccc2)n1C,"inconclusive [inhibitor, partial curve]",
NC(=O)C1CCC(NC(=O)OCc2ccccc2)CC1 (configuration not stated),"inconclusive [inhibitor, partial curve]",
CC(C)CNC(=S)NC(=O)c1csc([N+](=O)[O-])c1,"inconclusive [inhibitor, partial curve]",
O=C(N/N=C\C=C\c1ccco1)c1cc(-c2ccc3ccccc3c2)n[nH]1,"inconclusive [inhibitor, partial curve]",
Cc1ccc2c(c1)CC1(CN2C)C(=O)NC(=O)N(c2ccc(C)c(C)c2)C1=O (configuration not stated),"inconclusive [inhibitor, full curve, poor fit]",
O=C(CNC(=O)C12CC3CC(CC(C3)C1)C2)OCC(=O)N1CCCCC1,"inconclusive [inhibitor, single point]",
O=C(CSc1nc2c(sc3ccccc32)c(=O)n1CCO)NCc1ccco1,,inactive: -2.76%
S=C(NCc1ccccc1)N1CCn2cccc2C1c1ccncc1 (configuration not stated),"inconclusive [inhibitor, partial curve]",
Cc1noc(C)c1S(=O)(=O)NCC(=O)O,,inactive: 5.22%
Cc1ccc(NC(=O)C2CCCN(S(=O)(=O)c3ccc4c(c3)CCCC(=O)N4)C2)cc1N(C)C (configuration not stated),,inactive: 7.32%
CCCC(=O)N1CCN(c2ccc(NC(=O)c3ccc([N+](=O)[O-])o3)cc2Cl)CC1,"inconclusive [inhibitor, partial curve]",
COc1ccc(/C=N/NC(=O)C(=O)Nc2ccccn2)cc1OC,,inactive: 14%
CCn1c(SCc2nc(-c3ccccc3)no2)nnc1-c1ccco1,"inconclusive [inhibitor, single point]",
O=C(Cc1ccc(S(=O)(=O)N2CCOCC2)s1)Nc1nc2c(s1)CCCC2,"inconclusive [inhibitor, single point]",
CCC1Oc2ccccc2N(CC(=O)NCc2ccco2)C1=O (configuration not stated),"inconclusive [inhibitor, partial curve]",
CN(Cc1ccco1)C(=O)CN1C(=O)NC(c2ccccc2)(c2ccccc2)C1=O,active: 35.5 µM,
COc1ccc(C#Cc2ccc3c(c2)c(=O)c2ccccc2n3C)cc1,"inconclusive [inhibitor, partial curve, poor fit]",
CCN(CC(=O)Nc1ccc2c(c1)OCCO2)C(=O)c1ccc([N+](=O)[O-])s1,"inconclusive [inhibitor, full curve, poor fit]",
Cc1ccc(C(=O)N2CCN(S(=O)(=O)c3sc(C(=O)O)c(C)c3C(=O)O)CC2)s1,,inactive: 1.65%
COc1cccc(N2CCN(C(=O)c3ccc4c(Cl)c5c(nc4c3)CCCC5)CC2)c1,,inactive: -0.68%

SMILES,Potency,"activity change, negative = inhibition"
Cc1cccc(N(C)C(=O)CCS(=O)(=O)c2cccc3nonc23)c1,"inconclusive [inhibitor, partial curve]",
NC(=O)C1CCN(c2oc(-c3ccc(F)cc3)nc2S(=O)(=O)c2ccccc2)CC1,"inconclusive [inhibitor, partial curve]",
Cc1nc(C(N)=O)c(N)n1CCc1ccccc1,"inconclusive [inhibitor, partial curve]",
Oc1c(/C=C/C=C/C=Nc2ccccc2)sc(=S)n1Cc1ccccc1,active: 11.2 µM,
CCOc1cccc(C(=O)NC(=S)Nc2ccccc2)c1,active: 39.8 µM,
COCCNC(=S)Nc1ccc2nsnc2c1,"inconclusive [inhibitor, partial curve]",
COC(=O)C1=C(O)/C(=C\c2cc(C)n(-c3ccccc3C)c2C)N=C1C,active: 25.1 µM,
CCCN1CCN(C(=O)c2noc3c2COc2ccc(C)cc2-3)CC1,active: 5.01 µM,
CC(=O)N1CCc2cc(C(=O)CN3CCCN(Cc4ccc(F)cc4)C3)ccc21,active: 44.7 µM,
Cc1nc(Nc2ccc3c(c2)OCCO3)c2oc3ccccc3c2n1,,inactive: 0%
S=C(Nc1ccccc1)Nc1ccc(Br)cn1,"inconclusive [inhibitor, full curve]",
COc1ccc(N(C(=O)c2ccco2)S(=O)(=O)c2cccs2)cc1,"inconclusive [inhibitor, partial curve]",
O=S(=O)(NC1CCCC1)c1ccc(S(=O)(=O)N(Cc2cccs2)CC2CCCO2)cc1 (configuration not stated),"inconclusive [inhibitor, partial curve]",
CC(C)=CC(=O)N1CCC(N2CCC(C(=O)N3CCOCC3)CC2)CC1,,inactive: -11.4%
COc1cc(OC)cc(-c2nnc(NC(=O)c3ccc4c(c3)OCCO4)o2)c1,,inactive: 11.9%
Cc1cc(C)cc(-n2ncc3c2CCCC3NC(=O)c2cc(C)oc2C)c1 (configuration not stated),"inconclusive [inhibitor, partial curve]",
O=S(=O)(NCc1csc(-c2ccccc2)n1)c1ccccc1,,inactive: -17.3%
Cc1cc2ccccn2c1C(=O)c1ccc([N+](=O)[O-])o1,"inconclusive [inhibitor, full curve, poor fit]",
COc1ccc(OC)c(CN2CCN(C(=O)c3cc4ccccc4cc3O)CC2)c1,,inactive: 6.64%
Cn1c(SCC(=O)c2ccccc2)nnc1-c1cccs1,"inconclusive [inhibitor, partial curve]",
Cc1cc(C(=O)CCl)c(C)n1-c1cccc([N+](=O)[O-])c1,"inconclusive [inhibitor, full curve]",
CCC1CCCCN1CCCNC(=O)C1CCN(S(=O)(=O)N2CCC3(CC2)OCCO3)CC1 (configuration not stated),"inconclusive [inhibitor, single point]",
COc1cc2c(cc1OC)CN(Cc1cc(OC)c(O)c(OC)c1)CC2,active: 8.91 µM,
CNC(=O)c1cccc(-n2c(C)nc3cccnc32)c1C,,inactive: -0.737%
